Measurements taken from paper PMC4336329 (PLoS ONE, 2015).
About 2,200 (0.71%) of roughly 310,000 compounds showed an effect of 50% or more. Effects have a minus sign here. The list shows a part of the results.

Each molecule was assayed against human ether-à-go-go-related gene (hERG) potassium channel (human, UniProt Q12809) (assay: primary screen, population patch clamp on CHO cells stably expressing hERG).
human ether-à-go-go-related gene (hERG) potassium channel, sequence (Q12809 whole entry, looked up): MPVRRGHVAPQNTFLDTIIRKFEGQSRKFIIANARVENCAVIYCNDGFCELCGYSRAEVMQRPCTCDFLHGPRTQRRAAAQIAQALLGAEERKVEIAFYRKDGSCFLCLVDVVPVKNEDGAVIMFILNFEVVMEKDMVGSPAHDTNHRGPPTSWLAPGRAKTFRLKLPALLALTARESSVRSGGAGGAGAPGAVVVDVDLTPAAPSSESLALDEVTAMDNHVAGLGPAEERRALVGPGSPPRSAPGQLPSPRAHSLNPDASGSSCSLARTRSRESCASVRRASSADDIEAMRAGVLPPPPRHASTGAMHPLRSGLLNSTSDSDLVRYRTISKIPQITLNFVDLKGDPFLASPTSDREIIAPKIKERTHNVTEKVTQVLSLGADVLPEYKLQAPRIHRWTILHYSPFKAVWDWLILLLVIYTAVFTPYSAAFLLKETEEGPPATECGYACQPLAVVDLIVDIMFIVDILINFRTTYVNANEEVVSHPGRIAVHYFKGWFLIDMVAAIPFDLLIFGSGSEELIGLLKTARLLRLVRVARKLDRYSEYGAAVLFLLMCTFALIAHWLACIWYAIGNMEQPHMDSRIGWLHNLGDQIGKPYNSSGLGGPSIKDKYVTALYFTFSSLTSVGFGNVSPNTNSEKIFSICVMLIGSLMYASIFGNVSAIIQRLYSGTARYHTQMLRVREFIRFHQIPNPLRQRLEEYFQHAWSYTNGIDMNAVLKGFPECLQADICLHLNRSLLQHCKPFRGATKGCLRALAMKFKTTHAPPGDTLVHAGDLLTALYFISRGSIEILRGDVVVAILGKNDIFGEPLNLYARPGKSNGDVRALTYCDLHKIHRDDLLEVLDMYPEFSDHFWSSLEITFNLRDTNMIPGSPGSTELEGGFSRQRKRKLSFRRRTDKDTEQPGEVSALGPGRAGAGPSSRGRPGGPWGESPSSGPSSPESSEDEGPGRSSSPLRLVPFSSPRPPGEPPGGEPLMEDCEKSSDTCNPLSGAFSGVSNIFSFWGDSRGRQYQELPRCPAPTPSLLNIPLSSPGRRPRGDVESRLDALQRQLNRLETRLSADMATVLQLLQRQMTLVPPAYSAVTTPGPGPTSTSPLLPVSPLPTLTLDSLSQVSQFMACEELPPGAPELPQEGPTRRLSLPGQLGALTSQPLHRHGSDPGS

Going from `O=C(CN1CCCN(Cc2ccc(F)cc2Cl)C1=O)NC1CCCC1` to `Cc1ccc(Cn2nnc3c(=O)n(CC(=O)N4CCCCC4)cnc32)cc1`, the “hERG current change (%, negative = inhibition) at 1uM” value falls from 12% to -2.84%.

Compared with `CCOC(=O)N1CCN(c2c(NCCc3ccc(OC)c(OC)c3)c(=O)c2=O)CC1`, `CCn1cc(C(=O)N2CCN(C(=O)c3ccco3)CC2)c2cc(OC)c(OC)cc2c1=O` is higher in “hERG current change (%, negative = inhibition) at 1uM” value: 6.41% for the first, 12.9% for the second.

First: O=C(CSCc1ccc(Br)cc1)NCc1ccccn1
Second: CCn1c(SCc2ccc(F)cc2)nc2ccccc2c1=O
The “hERG current change (%, negative = inhibition) at 1uM” value of the first is lower: 8.97% for the first, 18.3% for the second.

Compared with `COc1ccc(N)cc1C#N`, `COc1ccc(Br)cc1CNC(C)c1ccccc1` (centres unmarked) is higher in “hERG current change (%, negative = inhibition) at 1uM” value: 0.109% for the first, 7.15% for the second.

First: Cc1cc(Br)ccc1NC(=O)CNC(=O)CNc1cccc([N+](=O)[O-])c1
Second: CC(=O)Nc1cccc(Oc2ncccc2[N+](=O)[O-])c1
The “hERG current change (%, negative = inhibition) at 1uM” value of the first is lower: 2.05% for the first, 3.08% for the second.

Compared with `Cc1cc(Br)cc(C=Nc2ccc(N3CCOCC3)cc2)c1O`, `O=C(Nc1ccc(C(F)(F)F)cc1)c1cccnc1N1CCOCC1` is lower in “hERG current change (%, negative = inhibition) at 1uM” value: 11.1% for the first, -2.56% for the second.

Going from `N#Cc1ccc(CN2CCN(C(=O)c3ccc(S(=O)(=O)N4CCCCCC4)cc3)CC2)cc1` to `Cn1cc(CN2CCC(Oc3ccc(C(=O)N4CCCCC4)cc3)CC2)cn1`, the “hERG current change (%, negative = inhibition) at 1uM” value rises from -5.24% to 9.69%.

Compared with `O=C(c1ccccc1OCc1ccccc1Br)N1CCN(c2ncccn2)CC1`, `CCOc1ccc(C(=O)N2CCN(c3ccccn3)CC2)cc1OCC` is higher in “hERG current change (%, negative = inhibition) at 1uM” value: -13.6% for the first, 16% for the second.

Going from `Cc1ccc(SCCOCCN2CCc3ccccc3C2)cc1` to `O=C(c1ccccc1)N1CCCC(c2ccc(Cl)cc2)=N1`, the “hERG current change (%, negative = inhibition) at 1uM” value rises from -6.57% to 14.4%.

Compared with `O=C(CCC1CCCCC1)Nc1ccc(C(=O)c2ccncc2)cc1`, `COc1ccccc1CC(=O)Nc1ccc(S(=O)(=O)N2CCCC2)cc1` is higher in “hERG current change (%, negative = inhibition) at 1uM” value: 0.002% for the first, 8.61% for the second.

Compared with `CCOc1ccc(-n2cc(C(=O)NCCOC)c3cc(OC)c(OC)cc3c2=O)cc1`, `CCOc1ccc(NC(=S)NCc2ccc3[nH]c(C)cc3c2)cc1` is higher in “hERG current change (%, negative = inhibition) at 1uM” value: 17.9% for the first, 18.4% for the second.

Compared with `COc1ccccc1N1CCN(C(=O)CN(C)S(=O)(=O)c2ccc3c(c2)c(=O)n(C)c(=O)n3C)CC1`, `COc1ccccc1N1CCN(C(=O)c2cccs2)CC1` is higher in “hERG current change (%, negative = inhibition) at 1uM” value: 5.58% for the first, 14.2% for the second.

First: NC(=O)CSc1nc2scc(-c3ccco3)c2c(=O)n1-c1ccccc1
Second: COc1cccc(-n2c(SCC(=O)NC3CCS(=O)(=O)C3)nc3ccccc3c2=O)c1 (centres unmarked)
The “hERG current change (%, negative = inhibition) at 1uM” value of the first is lower: 1.26% for the first, 15.1% for the second.

Compared with `O=C(CCc1nc2ccccc2s1)NCc1ccccc1F`, `O=C(CCc1nnc(COc2ccccc2)o1)NCc1ccccc1C(F)(F)F` is lower in “hERG current change (%, negative = inhibition) at 1uM” value: 14.5% for the first, 3.67% for the second.

Compared with `Cc1nn(C)c(C)c1C1C(C#N)=C(N)OC2=C1C(=O)CC(C)(C)C2` (centres unmarked), `Cc1nn(C)c(C)c1NC(=O)c1ccc(Br)o1` is higher in “hERG current change (%, negative = inhibition) at 1uM” value: -2.5% for the first, 8.77% for the second.

Going from `COC(=O)[C@@H](NC(=O)NC1CCCc2ccccc21)C(C)C` (some centres unmarked) to `Cc1cc(C)cc(-n2ncc3c2CCCC3NC(=O)c2cc(C)[nH]n2)c1` (centres unmarked), the “hERG current change (%, negative = inhibition) at 1uM” value falls from 16.9% to 6.03%.

First: Cc1onc(-c2ccccc2Cl)c1C(=O)Nc1ccccc1C(N)=O
Second: O=C(N/N=C1\CCc2ccccc21)c1ccccc1Cl
The “hERG current change (%, negative = inhibition) at 1uM” value of the first is lower: 4.31% for the first, 10.1% for the second.

Going from `COc1ccccc1Cn1c(SCC#N)nc2cc(C(=O)N3CCC4(CC3)OCCO4)ccc2c1=O` to `COc1ccc(C2C(C(=O)NCCN3CCOCC3)c3ccccc3C(=O)N2C2CCCCC2)cc1` (centres unmarked), the “hERG current change (%, negative = inhibition) at 1uM” value falls from 16.1% to 10.7%.

Compared with `Fc1ccc(Nc2nc(-c3cccnc3)cs2)cc1`, `O=C(Nc1ccc(F)cc1)C(=O)C1C(=O)Nc2ccccc21` (centres unmarked) is lower in “hERG current change (%, negative = inhibition) at 1uM” value: 13.7% for the first, -3.38% for the second.

Compared with `Nn1c(SCC(=O)NCc2ccccc2)nncc1=O`, `Cc1nn(CC(=O)NCc2ccccc2)c(C)c1[N+](=O)[O-]` is lower in “hERG current change (%, negative = inhibition) at 1uM” value: 11.3% for the first, 3.9% for the second.

Compared with `Cc1ccc(S(=O)(=O)N(C)CC(=O)NNC(=O)Cc2cccc(F)c2)cc1`, `C/C(=N/NS(=O)(=O)c1ccc(C)cc1)c1cccc(NC(=O)c2cccc(Cl)c2)c1` is higher in “hERG current change (%, negative = inhibition) at 1uM” value: 4.71% for the first, 13.1% for the second.

First: CCOC(=O)C1=C(N)n2c(s/c(=C\c3cccs3)c2=O)=C(C(=O)OCC)C1c1cccs1 (centres unmarked)
Second: CCOC(=O)c1c(C)[nH]c(C(=O)OCc2ccc(F)cc2)c1C
The “hERG current change (%, negative = inhibition) at 1uM” value of the first is higher: 16.6% for the first, 6.2% for the second.

Compared with `O=C1c2ccccc2C(=O)N1c1n[nH]c(CCc2ccccc2)n1`, `CC(C)(C)NC(=O)C(c1ccc(F)cc1)N(CCc1ccccc1)C(=O)c1ccn[nH]1` (centres unmarked) is higher in “hERG current change (%, negative = inhibition) at 1uM” value: 5.86% for the first, 8.74% for the second.

Going from `O=C(CCSCc1ccc(Cl)cc1)NCCC1=CCCCC1` to `Cc1ccc(CNC(=O)C2CCC(=O)N(CCCN3CCOCC3)C2)cc1` (centres unmarked), the “hERG current change (%, negative = inhibition) at 1uM” value rises from 15.2% to 16.2%.

First: COc1cccc(C(=O)N[C@@H](CCSC)c2nc3ccccc3[nH]2)c1
Second: COc1cccc(C(CC(=O)Nc2cccc3ccccc23)NC(=O)c2ccccc2)c1 (centres unmarked)
The “hERG current change (%, negative = inhibition) at 1uM” value of the first is lower: 3.44% for the first, 4.76% for the second.

Going from `CC1CCCN(S(=O)(=O)c2ccc(NC(=O)C3CCN(C(=O)C(C)(C)C)CC3)cc2)C1` (centres unmarked) to `CCOC(=O)N1CCC(N2Cc3cccc(C(=O)Nc4ccc(CC)cc4)c3C2=O)CC1`, the “hERG current change (%, negative = inhibition) at 1uM” value falls from 5.57% to 4.97%.

Going from `Cc1ccccc1NC(=S)Nn1cnnc1` to `Cc1cccc(C)c1NC(=O)C(NC=O)c1ccccc1` (centres unmarked), the “hERG current change (%, negative = inhibition) at 1uM” value falls from 14.6% to -11.1%.

First: CCCCC(=O)Nc1nnc(CCOC)s1
Second: CCc1nnc(NC(=O)CSc2nnc3c(C)cc4c(C)ccc(C)c4n23)s1
The “hERG current change (%, negative = inhibition) at 1uM” value of the first is higher: 14.6% for the first, 14.2% for the second.

Compared with `Cn1c(=O)c2c(nc(Oc3ccc4c(c3)OCO4)n2Cc2ccc(Cl)cc2)n(C)c1=O`, `CC1Cc2cc(/C(O)=C3/C(=O)C(=O)N(CCCn4ccnc4)C3c3ccc(F)cc3)ccc2O1` (centres unmarked) is lower in “hERG current change (%, negative = inhibition) at 1uM” value: 8.2% for the first, 7.91% for the second.

First: O=C(NCC(O)CO)c1csc(Nc2cccc3ccccc23)n1 (centres unmarked)
Second: CC(=O)Cn1nnc2sc(-c3ccccc3)cc2c1=O
The “hERG current change (%, negative = inhibition) at 1uM” value of the first is higher: 11.5% for the first, 11.3% for the second.

Going from `CN1CCN(c2c(F)cc3c(=O)c(C(=O)O)cn4c3c2SCC4)CC1.Cl` to `O=C(Nc1cc2c3c(c1)CC(=O)N3CCC2)c1c(F)cccc1F`, the “hERG current change (%, negative = inhibition) at 1uM” value falls from 12.2% to 9.99%.

Going from `CCOc1ccc(-n2c(SCc3nc(-c4ccc(C)cc4)no3)nnc2-c2ccncc2)cc1` to `Cc1nnc(C)c2c(C)n(-c3ccc4ncccc4c3)c(C)c12`, the “hERG current change (%, negative = inhibition) at 1uM” value rises from -42.3% to 5.13%.

Compared with `Cn1nc(C(=O)Nc2sccc2C(N)=O)ccc1=O`, `Cc1c(C(=O)Nc2nccs2)oc2c(Cl)cccc12` is lower in “hERG current change (%, negative = inhibition) at 1uM” value: 15.1% for the first, 11.7% for the second.

Compared with `Cc1cccc(NC(=O)CCN2CC(C)CC(C)C2)c1.Cl` (centres unmarked), `CC1CC(C)CN(C(=O)CSc2nnc(-c3ccc(Cl)s3)o2)C1` (centres unmarked) is higher in “hERG current change (%, negative = inhibition) at 1uM” value: -29.4% for the first, 5.07% for the second.

Going from `Cc1nc(C(F)(F)F)ccc1C(=O)Nc1ccc(C(F)(F)F)cn1` to `COC(=O)c1ccc(-n2nc(C(F)(F)F)c3c2-c2ccoc2CC3)cc1`, the “hERG current change (%, negative = inhibition) at 1uM” value rises from 13.5% to 14.1%.

First: CCCCNC(=O)Oc1c(Br)cc2sc(=O)oc2c1Br
Second: COc1ccc(NC(=O)CCNS(=O)(=O)c2ccc3[nH]c(=O)oc3c2)cc1Cl
The “hERG current change (%, negative = inhibition) at 1uM” value of the first is higher: 16% for the first, -26.8% for the second.

Going from `N#CC1=C(N)NC(SCc2ccc(F)cc2)=C(C#N)C12CCCCC2` to `COC(=O)c1ccc(CSc2nc(N)cc(N)n2)cc1`, the “hERG current change (%, negative = inhibition) at 1uM” value falls from 13.2% to 6.67%.

First: COc1ccc(C2Nc3cccc4cccc(c34)N2)cc1
Second: COc1ccc(N2CCN(Cc3nc(N)nc(N4CCCc5ccccc54)n3)CC2)cc1
The “hERG current change (%, negative = inhibition) at 1uM” value of the first is higher: 8.37% for the first, 0.804% for the second.

Going from `O=C(Cn1c(=O)n(-c2ccccc2)c(=O)c2sccc21)N1CCCC1` to `COCCn1c(SCC(=O)N2CCCC2)nnc1-c1ccco1`, the “hERG current change (%, negative = inhibition) at 1uM” value rises from 2.32% to 14.7%.

Compared with `COCCCNS(=O)(=O)c1ccc(C)cc1`, `CCOc1ccccc1NC(=S)N(CCN(C)C)C(C)c1ccncc1` (centres unmarked) is lower in “hERG current change (%, negative = inhibition) at 1uM” value: 11.9% for the first, 5.16% for the second.

First: Cc1ccc(N=Nc2c(O)[nH]c(=O)[nH]c2=O)c([N+](=O)[O-])c1
Second: CCN(CC)CCN(Cc1cc2cc(C)cc(C)c2[nH]c1=O)C(=S)NCc1ccco1
The “hERG current change (%, negative = inhibition) at 1uM” value of the first is higher: 2.51% for the first, -9.67% for the second.

Compared with `COC(=O)c1c(NC(=O)CSc2nnc(-c3ccco3)n2C)sc(C)c1C`, `Cc1nn(C)c(C)c1C(C)NC(=O)c1cc(COc2cncc(Cl)c2)on1` (centres unmarked) is higher in “hERG current change (%, negative = inhibition) at 1uM” value: -3% for the first, 35.3% for the second.

Compared with `CN(C#N)c1nccc(-c2cccs2)n1`, `CCCc1nn2c(N)c(/C=C3\C=Nc4ccccc43)c(=O)nc2s1` is higher in “hERG current change (%, negative = inhibition) at 1uM” value: 0.314% for the first, 12.4% for the second.

Going from `O=C(COC(=O)Cc1ccc(Br)cc1)Nc1c(F)c(F)c(F)c(F)c1F` to `CCCN(CC(=O)Nc1ccccc1C)C(=O)C1CCN(S(=O)(=O)c2ccccc2C(F)(F)F)CC1`, the “hERG current change (%, negative = inhibition) at 1uM” value rises from 0.362% to 5.51%.

For `CCN1CCN(Cc2ccc(OCc3ccccc3)c(OC)c2)CC1`, the “hERG current change (%, negative = inhibition) at 1uM” value was 4.31%.
